The supplement of paper PMC6828730
The list shows a part of the results. Single values are uncertain, as repeats are few or missing.

Key:
[1] = test system: hiPSC-derived cardiomyocytes; test: time to death of most cells in well after compound addition (days); higher = less cardiotoxic; settings: screen: 1; 10 µM
[2] = test system: hiPSC-derived cardiomyocytes; test: time to death of most cells in well after compound addition (days); higher = less cardiotoxic; extreme values may be limits of the assay; settings: 10 µM

| SMILES | time to death of most cells in well [1] | time to death of most cells in well ([2]; screen: 2) | time to death of most cells in well ([2]; screen: 3) | time to death of most cells in well ([2]; screen: 4) |
| --- | --- | --- | --- | --- |
| COc1cc2nccc(Oc3ccc(NC(=O)Nc4cc(C)on4)c(Cl)c3)c2cc1OC [Tivozanib (AV-951)] | 3 | > 7 | > 7 | > 7 |
| CC(C)NC[C@@H](C(=O)N1CCN(c2ncnc3c2[C@H](C)C[C@H]3O)CC1)c1ccc(Cl)cc1 [Ipatasertib (GDC-0068)] | 1 | 3.5 | > 7 | > 7 |
| CN(C)Cc1cccc(N=C(c2ccccc2)c2c(O)[nH]c3cc(C(N)=O)ccc23)c1 | 3 | 3 | > 7 | > 7 |
| O=C(NOCC(O)CO)c1cc(Br)c(F)c(F)c1Nc1ccc(I)cc1F (stereo not given) | > 7 | > 7 | > 7 | > 7 |
| CC(C)(C#N)c1ccc(N2C(=O)OCc3cnc4ccc(-c5cnc6ccccc6c5)cc4c32)cc1 | > 7 | 3.5 | > 7 | > 7 |
| CC[C@@H]1C(=O)N(C)c2cnc(Nc3ccc(C(=O)NC4CCN(C)CC4)cc3OC)nc2N1C1CCCC1 | 4.5 | > 7 | 3.5 | 3 |
| CCn1c(-c2nonc2N)nc2c(C#CC(C)(C)O)ncc(OC[C@H]3CCCNC3)c21 | > 7 | 2.5 | > 7 | > 7 |
| O=C(Nc1cc(C(F)(F)F)cc(C(F)(F)F)c1)c1cc(Cl)ccc1O | 1 | 0.5 | 3 | > 7 |
| Cn1cnc(-c2cc3nccc(Oc4ccc(NC(=S)NC(=O)Cc5ccccc5)cc4F)c3s2)c1 | > 7 | > 7 | > 7 | > 7 |
| CN1CCN(c2ccc(Nc3cc(-c4cccc(-n5ccc6cc(C7CC7)cc(F)c6c5=O)c4CO)cn(C)c3=O)nc2)CC1 | 1 | 4 | > 7 | > 7 |
